Test results from paper PMC4336329 (PLoS ONE, 2015).
Screen size: about 310,000 compounds; about 2,200 (0.71%) showed an effect of 50% or more. Effects have a minus sign here. The list shows a part of the results. Where a SMILES comes first, the peptide text is derived from it.

The compounds below were run against human ether-à-go-go-related gene (hERG) potassium channel (human, UniProt Q12809) (assay: primary screen, population patch clamp on CHO cells stably expressing hERG).
Chain of human ether-à-go-go-related gene (hERG) potassium channel (Q12809 whole entry, looked up): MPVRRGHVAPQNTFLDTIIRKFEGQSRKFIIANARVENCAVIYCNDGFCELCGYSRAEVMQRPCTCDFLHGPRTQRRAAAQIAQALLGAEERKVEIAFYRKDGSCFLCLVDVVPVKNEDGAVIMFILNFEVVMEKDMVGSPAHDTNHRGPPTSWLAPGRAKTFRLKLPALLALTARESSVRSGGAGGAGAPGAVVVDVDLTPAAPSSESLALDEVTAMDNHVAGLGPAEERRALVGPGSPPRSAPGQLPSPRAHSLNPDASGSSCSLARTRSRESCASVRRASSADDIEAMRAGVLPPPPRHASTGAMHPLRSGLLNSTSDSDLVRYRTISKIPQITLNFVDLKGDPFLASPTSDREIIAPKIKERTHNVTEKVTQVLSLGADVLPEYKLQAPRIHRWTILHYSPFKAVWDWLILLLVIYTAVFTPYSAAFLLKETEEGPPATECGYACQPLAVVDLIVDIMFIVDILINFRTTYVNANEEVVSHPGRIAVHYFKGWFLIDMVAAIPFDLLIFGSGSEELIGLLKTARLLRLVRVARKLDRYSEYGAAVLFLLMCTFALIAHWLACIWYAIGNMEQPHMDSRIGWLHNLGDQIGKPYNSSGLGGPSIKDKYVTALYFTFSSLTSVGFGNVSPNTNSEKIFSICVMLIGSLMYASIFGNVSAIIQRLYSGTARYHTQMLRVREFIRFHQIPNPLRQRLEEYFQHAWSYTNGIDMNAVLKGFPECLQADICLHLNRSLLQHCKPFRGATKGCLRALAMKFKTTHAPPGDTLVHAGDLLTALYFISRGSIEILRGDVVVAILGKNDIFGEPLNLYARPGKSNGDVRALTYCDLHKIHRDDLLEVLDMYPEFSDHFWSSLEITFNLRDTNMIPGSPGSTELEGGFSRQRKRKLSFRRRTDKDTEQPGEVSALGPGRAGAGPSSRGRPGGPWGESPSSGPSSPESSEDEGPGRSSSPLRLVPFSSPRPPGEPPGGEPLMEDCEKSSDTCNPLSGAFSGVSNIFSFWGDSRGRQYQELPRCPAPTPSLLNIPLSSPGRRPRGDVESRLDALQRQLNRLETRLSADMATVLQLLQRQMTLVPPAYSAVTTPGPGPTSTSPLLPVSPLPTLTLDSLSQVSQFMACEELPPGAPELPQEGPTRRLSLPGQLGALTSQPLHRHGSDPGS

Row | Compound | hERG current change (%, negative = inhibition) at 1uM
1 | NNC(=O)c1ccc(O)cc1 | 10.4%
2 | C=CCn1c(-c2ccccc2[N+](=O)[O-])n[nH]c1=S | 11%
3 | Cc1ccc(C)c(C(=O)COc2ccc(C)nc2[N+](=O)[O-])c1 | 4.3%
4 | CCC(CC)C(=O)Nc1cc(OC)c(OC)cc1C(=O)O | 7.97%
5 | O=C(NCc1ccccc1)N1CCn2c(nc3ccccc32)C1 | 10.6%
6 | Cc1ccc(NC(=O)CS(=O)CC(=O)N(C(C)C(=O)NC2CCCCC2)C(C)(C)C)cc1 (stereo not shown) | 7.68%
7 | O=C1CC(N2CCN(Cc3ccc4c(c3)OCO4)CC2)C(=O)N1c1ccccc1 (stereo not shown) | -3.04%
8 | C=CCOC(=O)C1=C[C@H](c2csc3ccccc23)C[C@H](OCCCCO)O1 | 14%
9 | CCOc1ccc2c(c1)OC(c1ccc(OC)cc1)(C(F)(F)F)NC2=O (stereo not shown) | -3.91%
10 | CC[N+]1(CC)CC2=Cc3ccccc3CC2C1.[Br-] (stereo not shown) | -3.1%
11 | CSc1ccccc1NC(=O)Nc1ccccc1 | 17.1%
12 | CN1C(=O)C(=Cc2ccccc2OCCOc2ccc([N+](=O)[O-])cc2)C(=O)N(C)C1=O | -3.75%
13 | COc1ccc(-n2c(=S)[nH]c3ccccc32)cc1 | 8.87%
14 | CC(C(=O)N1CCN(Cc2ccccc2)CC1)n1ncn2cccc2c1=O (stereo not shown) | 9.05%
15 | Cn1cc(Cl)c(C(=O)NC(=S)Nc2sc3c(c2C#N)CCCCC3)n1 | 14.6%
16 | O=C(CSc1nnc(CNC(=O)c2ccccc2)o1)c1ccccc1 | 9.49%
17 | CN1C(=O)CC(N2CCC(c3nc4ccccc4[nH]3)CC2)C1=O (stereo not shown) | 18.1%
18 | COc1ccc(S(=O)(=O)NCC(=O)NC2CC2)cc1OC | 12.7%
19 | CCSc1nnc(NC(=O)Cc2ccc(OC)cc2)s1 | 13.3%
20 | CCOC(=O)C1CCCN(C(=O)c2ccccc2NC(C)=O)C1 (stereo not shown) | 7.69%

Row | Compound | hERG current change (%, negative = inhibition) at 1uM
21 | O=C(CCNC(=O)c1ccco1)Nc1cccc(C(F)(F)F)c1 | 7.83%
22 | c1ccc(OCC2CO2)cc1 (stereo not shown) | 17.3%
23 | CNC1(c2nnnn2-c2c(C)cccc2C)CCOC(C)(C)C1 (stereo not shown) | 2.22%
24 | CCOc1ccccc1-n1nnnc1SCC(=O)NCc1ccco1 | 12.7%
25 | COc1ccc(-n2c(=S)[nH]c3sc(-c4ccccc4)cc3c2=O)c(OC)c1 | 7.03%
26 | Cc1ccc(N(C)C2=NC(=O)CS2)cc1Cl | 14.2%
27 | Cc1ccc(NC(=O)CN2C(=O)S/C(=C\c3ccccn3)C2=O)cc1 | 9.63%
28 | O=C(CCc1ccccc1)N=C1SC2CS(=O)(=O)CC2N1Cc1ccccc1 (stereo not shown) | 28%
29 | COc1ccc(C(=S)N2CCN(S(=O)(=O)c3ccccc3)CC2)cc1 | 8.19%
30 | CC(C)N(C(=S)Nc1cc(S(=O)(=O)N2CCOCC2)ccc1Cl)c1ccccc1 | -12%
31 | Cc1cc(C)n2cc(CSCc3ccccc3)nc2n1 | 0.594%
32 | COc1ccc(C)cc1NS(=O)(=O)c1ccc2c(c1)n(C)c(=O)n2C | 12%
33 | CCN(CC)S(=O)(=O)c1cc([N+](=O)[O-])ccc1NNC(=O)Nc1ccc(Cl)c(Cl)c1 | 10.1%
34 | COC(=O)c1ccc(C2c3c(oc4cc(C)c(C)cc4c3=O)C(=O)N2CCCN(C)C)cc1 (stereo not shown) | 3.4%
35 | O=C(CCC1CCN(C(=O)Cc2c(F)cccc2F)CC1)NC1CC1 | 16.3%
36 | O=c1cc(N2CCCCC2)c(-c2ccccc2)nn1Cc1ccc(Cl)cc1 | 1.75%
37 | CC(NS(=O)(=O)c1ccc(OCC(=O)N2CCCC2)cc1)c1ccccc1 (stereo not shown) | 15.5%
38 | O=C(CCc1ccccc1)Nc1nccs1 | 15.9%
39 | CN1CCN(C(=S)Nc2ccc(Cl)cc2)CC1 | 13.1%
40 | CS(=O)(=O)N1N=C(c2cccs2)CC1c1ccco1 (stereo not shown) | 5.57%

Row | Compound | hERG current change (%, negative = inhibition) at 1uM
41 | CC(C)n1c(NCc2c[nH]c3ccccc23)nc2ccccc21 | -4.85%
42 | Cc1ccc(S(=O)(=O)N2CCN(C)CC2)c(C)c1 | 16%
43 | COc1ccc(N/N=C(/C#N)S(=O)(=O)c2nsc(C)c2C#N)cc1 | 2.48%
44 | COc1ccccc1N1CCN(c2cc(=O)n(Cc3ccc(F)cc3)c(=O)[nH]2)CC1 | 12.3%
45 | NC(=O)c1ccccc1NC(=O)CC12CC3CC(CC(Br)(C3)C1)C2 | 14.4%
46 | CCNc1nc(NCC)nc(N/N=C/c2ccc(O)c(OC)c2)n1 | 11.4%
47 | CC(=O)NC(CC(C)C)C(=O)NC(CO)C(=O)NC(CCC(=O)O)C(=O)NC(C)C(=O)NC(CC(C)C)C(N)=O.O=C(O)C(F)(F)F (stereo not shown) (Ac-LSEAL-NH2; configuration not given here) | 10.6%
48 | COc1cc(NC(=S)NCCc2ccccc2)c(OC)cc1NC(=O)CC(C)C | 15.1%
49 | CCOC(=O)NNS(=O)(=O)c1cc(Br)ccc1Br | 10.8%
50 | CCCCCCC1CC(CC(=O)Nc2ccc([N+](=O)[O-])cc2)C(=O)O1 (stereo not shown) | 5.92%
51 | CCCCCCCN1C2=NCCN2c2ccccc21.Cl | -60.7%
52 | Nc1nc2c(nc(N3CCCCC3)n2[C@@H]2O[C@H](CO)[C@@H](O)[C@H]2O)c(=O)[nH]1 | 11.1%
53 | COc1cccc(/C=N/NC(=O)C(=O)NCc2cccnc2)c1 | 9.25%
54 | O=C(Nc1cc(S(=O)(=O)Nc2ccc(Cl)cc2)ccc1O)c1ccc(S(=O)(=O)N2CCCCCC2)cc1 | 14.5%
55 | CN(C(=O)C12CC3CC(CC(C3)C1)C2)C1CCS(=O)(=O)C1 (stereo not shown) | 15.8%
56 | COc1ccc(NC(=S)NC2CCCCC2)cn1 | 15.5%
57 | CC1CCN(S(=O)(=O)c2ccc(NC(=O)CCN3C(=O)c4ccccc4C3=O)cc2)CC1 | 17.2%
58 | Nc1ncc(Br)cc1S(=O)(=O)NC1CCCCC1 | 9.52%
